{"source": "paper PMC9911399", "about": "“Two distinct binding modes provide the RNA-binding protein RbFox with extraordinary sequence specificity”", "binders": {"B1": {"name": "CCCCGAG (DNA:RNA)", "RNA": "GGGAGACCGGAAUUCAGAUUGUCCCCCCGAGUUAAAUCCCGUCGUAGCCACCA", "DNA 1": "CAATCTGAATTCCGGTCTCCC", "DNA 2": "TGGTGGCTACGACGGGATT"}, "B2": {"name": "AAGACCC (DNA:RNA)", "RNA": "GGGAGACCGGAAUUCAGAUUGUCCAAGACCCUUAAAUCCCGUCGUAGCCACCA", "DNA 1": "CAATCTGAATTCCGGTCTCCC", "DNA 2": "TGGTGGCTACGACGGGATT"}, "B3": {"name": "CCCAGAC (DNA:RNA)", "RNA": "B1 RNA with C28A, G31C", "DNA 1": "CAATCTGAATTCCGGTCTCCC", "DNA 2": "TGGTGGCTACGACGGGATT"}, "B4": {"name": "AGAUGCU (DNA:RNA)", "RNA": "B2 RNA with A26G, G27A, A28U, C29G, C31U", "DNA 1": "CAATCTGAATTCCGGTCTCCC", "DNA 2": "TGGTGGCTACGACGGGATT"}, "B5": {"name": "ACUUUAG (DNA:RNA)", "RNA": "B1 RNA with C25A, C27U, C28U, G29U", "DNA 1": "CAATCTGAATTCCGGTCTCCC", "DNA 2": "TGGTGGCTACGACGGGATT"}, "B6": {"name": "GGGUCUA (DNA:RNA)", "RNA": "B2 RNA with A25G, A26G, A28U, C30U, C31A", "DNA 1": "CAATCTGAATTCCGGTCTCCC", "DNA 2": "TGGTGGCTACGACGGGATT"}, "B7": {"name": "GUACAUC (DNA:RNA)", "RNA": "B2 RNA with A25G, A26U, G27A, A28C, C29A, C30U", "DNA 1": "CAATCTGAATTCCGGTCTCCC", "DNA 2": "TGGTGGCTACGACGGGATT"}, "B8": {"name": "AGCUCGU (DNA:RNA)", "RNA": "B2 RNA with A26G, G27C, A28U, C30G, C31U", "DNA 1": "CAATCTGAATTCCGGTCTCCC", "DNA 2": "TGGTGGCTACGACGGGATT"}, "B9": {"name": "UUGGCCG (DNA:RNA)", "RNA": "B2 RNA with A25U, A26U, A28G, C31G", "DNA 1": "CAATCTGAATTCCGGTCTCCC", "DNA 2": "TGGTGGCTACGACGGGATT"}, "B10": {"name": "CACAAAA (DNA:RNA)", "RNA": "B1 RNA with C26A, C28A, G29A, G31A", "DNA 1": "CAATCTGAATTCCGGTCTCCC", "DNA 2": "TGGTGGCTACGACGGGATT"}, "B11": {"name": "CAGUCGU (DNA:RNA)", "RNA": "B2 RNA with A25C, A28U, C30G, C31U", "DNA 1": "CAATCTGAATTCCGGTCTCCC", "DNA 2": "TGGTGGCTACGACGGGATT"}, "B12": {"name": "CUAAUGA (DNA:RNA)", "RNA": "B2 RNA with A25C, A26U, G27A, C29U, C30G, C31A", "DNA 1": "CAATCTGAATTCCGGTCTCCC", "DNA 2": "TGGTGGCTACGACGGGATT"}, "B13": {"name": "ACACUUG (DNA:RNA)", "RNA": "B1 RNA with C25A, C27A, G29U, A30U", "DNA 1": "CAATCTGAATTCCGGTCTCCC", "DNA 2": "TGGTGGCTACGACGGGATT"}, "B14": {"name": "ACCACGA (DNA:RNA)", "RNA": "B2 RNA with A26C, G27C, C30G, C31A", "DNA 1": "CAATCTGAATTCCGGTCTCCC", "DNA 2": "TGGTGGCTACGACGGGATT"}, "B15": {"name": "CUGGUCG (DNA:RNA)", "RNA": "B2 RNA with A25C, A26U, A28G, C29U, C31G", "DNA 1": "CAATCTGAATTCCGGTCTCCC", "DNA 2": "TGGTGGCTACGACGGGATT"}, "B16": {"name": "GGUACCG (DNA:RNA)", "RNA": "B2 RNA with A25G, A26G, G27U, C31G", "DNA 1": "CAATCTGAATTCCGGTCTCCC", "DNA 2": "TGGTGGCTACGACGGGATT"}, "B17": {"name": "UUUCGCU (DNA:RNA)", "RNA": "B1 RNA with C25U, C26U, C27U, A30C, G31U", "DNA 1": "CAATCTGAATTCCGGTCTCCC", "DNA 2": "TGGTGGCTACGACGGGATT"}, "B18": {"name": "ACACGAA (DNA:RNA)", "RNA": "B1 RNA with C25A, C27A, G31A", "DNA 1": "CAATCTGAATTCCGGTCTCCC", "DNA 2": "TGGTGGCTACGACGGGATT"}, "B19": {"name": "GAAUAAA (DNA:RNA)", "RNA": "B2 RNA with A25G, G27A, A28U, C29A, C30A, C31A", "DNA 1": "CAATCTGAATTCCGGTCTCCC", "DNA 2": "TGGTGGCTACGACGGGATT"}, "B20": {"name": "UAUCUCA (DNA:RNA)", "RNA": "B2 RNA with A25U, G27U, A28C, C29U, C31A", "DNA 1": "CAATCTGAATTCCGGTCTCCC", "DNA 2": "TGGTGGCTACGACGGGATT"}, "B21": {"name": "AACGAGA (DNA:RNA)", "RNA": "B2 RNA with G27C, A28G, C29A, C30G, C31A", "DNA 1": "CAATCTGAATTCCGGTCTCCC", "DNA 2": "TGGTGGCTACGACGGGATT"}, "B22": {"name": "ACAGGUA (DNA:RNA)", "RNA": "B1 RNA with C25A, C27A, C28G, A30U, G31A", "DNA 1": "CAATCTGAATTCCGGTCTCCC", "DNA 2": "TGGTGGCTACGACGGGATT"}, "B23": {"name": "GCUUGGU (DNA:RNA)", "RNA": "B1 RNA with C25G, C27U, C28U, A30G, G31U", "DNA 1": "CAATCTGAATTCCGGTCTCCC", "DNA 2": "TGGTGGCTACGACGGGATT"}, "B24": {"name": "AGCGAUA (DNA:RNA)", "RNA": "B2 RNA with A26G, G27C, A28G, C29A, C30U, C31A", "DNA 1": "CAATCTGAATTCCGGTCTCCC", "DNA 2": "TGGTGGCTACGACGGGATT"}, "B25": {"name": "CACCCUU (DNA:RNA)", "RNA": "B1 RNA with C26A, G29C, A30U, G31U", "DNA 1": "CAATCTGAATTCCGGTCTCCC", "DNA 2": "TGGTGGCTACGACGGGATT"}, "B26": {"name": "GCGCAUC (DNA:RNA)", "RNA": "B2 RNA with A25G, A26C, A28C, C29A, C30U", "DNA 1": "CAATCTGAATTCCGGTCTCCC", "DNA 2": "TGGTGGCTACGACGGGATT"}, "B27": {"name": "AGGCAUA (DNA:RNA)", "RNA": "B2 RNA with A26G, A28C, C29A, C30U, C31A", "DNA 1": "CAATCTGAATTCCGGTCTCCC", "DNA 2": "TGGTGGCTACGACGGGATT"}, "B28": {"name": "CAGUAAC (DNA:RNA)", "RNA": "B2 RNA with A25C, A28U, C29A, C30A", "DNA 1": "CAATCTGAATTCCGGTCTCCC", "DNA 2": "TGGTGGCTACGACGGGATT"}, "B29": {"name": "UCCCACC (DNA:RNA)", "RNA": "B1 RNA with C25U, G29A, A30C, G31C", "DNA 1": "CAATCTGAATTCCGGTCTCCC", "DNA 2": "TGGTGGCTACGACGGGATT"}, "B30": {"name": "CAAUUGA (DNA:RNA)", "RNA": "B2 RNA with A25C, G27A, A28U, C29U, C30G, C31A", "DNA 1": "CAATCTGAATTCCGGTCTCCC", "DNA 2": "TGGTGGCTACGACGGGATT"}, "B31": {"name": "UAACGGU (DNA:RNA)", "RNA": "B1 RNA with C25U, C26A, C27A, A30G, G31U", "DNA 1": "CAATCTGAATTCCGGTCTCCC", "DNA 2": "TGGTGGCTACGACGGGATT"}}, "note": "Changes are numbered by the printed parent chain; changes in the protein carry UniProt numbers. This is one part of the list.", "data": [{"target": "T1, RBFOX1 RRM RbFoxmut (Fox-RRM*) (Homo sapiens, UniProt Q9NWB1 109-208, R118D;E147R;N151S;E152T)", "T1 sequence": "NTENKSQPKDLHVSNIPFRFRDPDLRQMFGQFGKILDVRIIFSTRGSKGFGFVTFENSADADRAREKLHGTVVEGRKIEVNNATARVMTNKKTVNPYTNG", "test": "EMSA; HiTS-Eq, 1 nM pool, 10 min; buffer printed only for the single-RNA assays: 10 mM Tris pH 7.5, 150 mM NaCl, 3.4 mM EDTA, 0.001% NP-40, 30 C", "conditions": "tags: His6 N-terminal (pET28a); label: 5' 32P", "summary_of_the_method": "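Purified RbFox RRM (wild type or mutant) was equilibrated for 10 min in 50 µL with 1 nM of a 5′-radiolabelled pool of RNA with 7 randomized nucleotides, its flanks annealed to DNA oligonucleotides, across increasing protein concentrations. Free RNA was separated by 8% native PAGE, excised, reverse-transcribed, PCR-barcoded and sequenced on an Illumina HiSeq 2500. Relative association constants came from read-count changes of each variant against the control reaction, normalised to the cognate motif.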", "values": [{"binder": "B1", "binding signal": "0.13 KA relative to UGCAUGU"}, {"binder": "B2", "binding signal": "0.0462 KA relative to UGCAUGU"}, {"binder": "B3", "binding signal": "0.0843 KA relative to UGCAUGU"}, {"binder": "B4", "binding signal": "0.11 KA relative to UGCAUGU"}, {"binder": "B5", "binding signal": "0.142 KA relative to UGCAUGU"}, {"binder": "B6", "binding signal": "0.1 KA relative to UGCAUGU"}, {"binder": "B7", "binding signal": "0.0863 KA relative to UGCAUGU"}, {"binder": "B8", "binding signal": "0.148 KA relative to UGCAUGU"}, {"binder": "B9", "binding signal": "0.24 KA relative to UGCAUGU"}, {"binder": "B10", "binding signal": "0.0861 KA relative to UGCAUGU"}, {"binder": "B11", "binding signal": "0.0966 KA relative to UGCAUGU"}, {"binder": "B12", "binding signal": "0.114 KA relative to UGCAUGU"}, {"binder": "B13", "binding signal": "0.137 KA relative to UGCAUGU"}, {"binder": "B14", "binding signal": "0.112 KA relative to UGCAUGU"}, {"binder": "B15", "binding signal": "0.211 KA relative to UGCAUGU"}, {"binder": "B16", "binding signal": "0.165 KA relative to UGCAUGU"}, {"binder": "B17", "binding signal": "0.0799 KA relative to UGCAUGU"}, {"binder": "B18", "binding signal": "0.0925 KA relative to UGCAUGU"}, {"binder": "B19", "binding signal": "0.115 KA relative to UGCAUGU"}, {"binder": "B20", "binding signal": "0.0853 KA relative to UGCAUGU"}, {"binder": "B21", "binding signal": "0.0697 KA relative to UGCAUGU"}, {"binder": "B22", "binding signal": "0.131 KA relative to UGCAUGU"}, {"binder": "B23", "binding signal": "0.204 KA relative to UGCAUGU"}, {"binder": "B24", "binding signal": "0.127 KA relative to UGCAUGU"}, {"binder": "B25", "binding signal": "0.0738 KA relative to UGCAUGU"}, {"binder": "B26", "binding signal": "0.49 KA relative to UGCAUGU"}, {"binder": "B27", "binding signal": "0.11 KA relative to UGCAUGU"}, {"binder": "B28", "binding signal": "0.114 KA relative to UGCAUGU"}, {"binder": "B29", "binding signal": "0.0864 KA relative to UGCAUGU"}, {"binder": "B30", "binding signal": "0.0875 KA relative to UGCAUGU"}, {"binder": "B31", "binding signal": "0.0715 KA relative to UGCAUGU"}]}]}
